The supplement of paper PMC12217912
The list shows a part of the results. The full chains were built here from the parent and the listed change. Inactive controls read about 0.05.

B1: TEV protease; numbered along this chain (parent)
chain: MGESLFKGPRDYNPISSSICHLTNESDGHTTSLYGIGFGPFIITNKHLFRRNNGTLVVQSLHGVFKVKDTTTLQQHLVDGRDMIIIRMPKDFPPFPQKLKFREPQREERICLVTTNFQTKSMSSMVSDTSCTFPSGDGIFWKHWIQTKDGQCGSPLVSTRDGFIVGIHSASNFTNTNNYFTSVPKNFMELLTNQEAQQWVSGWRLNADSVLWGGHKVFMVKPEEPFQPVKEATQL

Variants of: B1
Assay: raw area under fraction-flipped curve 0-4 h after induction (AUC4h, not background-subtracted), DNA-recorder readout of cleavage of the substrate (dimensionless); higher = more cleavage of the substrate by the protease variant
Conditions: temperature: 34 °C; time window: 0-4 h after rhamnose induction
Protocol: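 In vivo DNA recorder in E. coli TOP10(DE3) ΔrhaA at 34 °C. Each TEVp single-site mutant (parent TEVp 0) is paired with a single-site variant of the 7-mer TEVs (canonical ENLYFQ|S). The substrate sits between flexible linkers in a Bxb1-sfGFP-TEVs-SsrA fusion, so cleavage stabilises Bxb1 and speeds flipping of a recombination array, read by NGS. The value is the raw area under the fraction-flipped curve over 0-4 h after rhamnose induction (AUC4h), with ≥20 reads per time point. It is not background-subtracted; inactive controls average about 0.047.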
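Also: Bxb1 expression induced with 0.2% (w/v) L-rhamnose at OD600 near 0.5, cultures sampled hourly, flipped fraction per protease–substrate barcode pair counted by paired-end Illumina sequencing.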

Variant	area with substrate ENAYFQS	area with substrate ENCYFQS	area with substrate ENDYFQS	area with substrate ENEYFQS	area with substrate ENFYFQS	area with substrate ENGYFQS	area with substrate ENHYFQS	area with substrate ENIYFQS	area with substrate ENKYFQS	area with substrate ENMYFQS	area with substrate ENQYFQS	area with substrate ENRYFQS	area with substrate ENSYFQS	area with substrate ENVYFQS	area with substrate ENNYFQS	area with substrate ENPYFQS	area with substrate ENWYFQS	area with substrate ENYYFQS	area with substrate ENTYFQS
W203T	0.0586	0.0457	0.0619	0.0513	0.0644	0.0621	0.0628	0.0744	0.0562	0.057	0.0671	0.0472	0.0644	0.0571					
W203F	0.0582		0.0531	0.035	0.081					0.0637	0.0547		0.0744		0.0541	0.0571			
K100P	0.0569	0.0654	0.0642		0.0735	0.054	0.0644	0.12	0.0581	0.106	0.0339	0.0671	0.049	0.083	0.0593		0	0.0532	
L205C	0.0673	0.0691	0.0615		0.0539				0.0448		0.0692		0.0705						
L205P	0.045	0.0644	0.0593	0.0589		0.0573				0.0575	0.0546	0.0463	0.0591	0.0567	0.068	0.0573			
F92M	0.0667		0.0587	0.0761	0.0487	0.0439	0.0463				0.0588	0.0634			0.057	0.0616	0.0558		
Q59C	0.0545	0.0748	0.0478	0.0625		0.0632		0.121			0.0702		0.0582	0.075	0.0713			0.0572	0.0671
A170P	0.0684				0.0545	0.0646			0.0517				0.0718			0.0617			
V57P	0.0414		0.0405	0.0444	0.0469	0.036		0.055	0.039		0.0432								0.039
H47T	0.0676	0.0598	0.0698	0.0557	0.0608		0.046	0.0645	0.0507		0.0517		0.065	0.0776		0.057	0.036		
G150M	0.0606	0.064	0.0666	0.0448			0.0591	0.0486	0.0686	0.0464		0.07			0.0579	0.0547	0.0606	0.0667	0.0779
H143Y	0.0605	0.0624	0.0687	0.049	0.0947	0.0796	0.0543	0.112	0.0381	0.0856	0.0606	0.0834		0.0864		0.0728			
Y34M	0.0684		0.0503	0.0587	0.0626		0.062	0.071			0.0591	0.0566	0.0661	0.0535	0.0789	0.0593		0.0611	0.0635
I167L	0.0666	0.0612	0.0613	0.0526		0.0814	0.0578	0.0529	0.0622	0.0695	0.0686	0.0583	0.0688	0.0661		0.0887	0.0433		0.0521
I167P	0.0535	0.0496	0.0535	0.0537	0.0411	0.0388		0.056	0.0499		0.0544		0.053						
G153D	0.0527		0.0687	0.062	0.0511							0.048		0.0438	0.0573				0.0387
S127N	0.0645	0.0701	0.0637	0.0588	0.0848	0.0633	0.0506		0.0653		0.0349	0.0603		0.0812	0.0618	0.052		0.0609	
N24I	0.0641		0.0703	0.0621	0.0672		0.061	0.0717		0.0562	0.055	0.0665		0.0612	0.0646			0.0548	0.0687
F41Y	0.0647	0.0794	0.0704	0.0493	0.0639	0.0576		0.108		0.123	0.0648	0.0549	0.0541	0.0743	0.0569	0.055	0.0764	0.0693	0.07
L156A	0.104	0.0544		0.0569	0.0626	0.0569	0.0602	0.1				0.0544	0.0671		0.0134	0.0718	0.044		0.0463
S123L	0.0155		0.0554	0.0645	0.0632		0.0708	0.117		0.0795	0.0423	0.054	0.0693	0.0991	0.0616	0.0756			0.0608
R106C	0.0546		0.0568		0.0633	0.0698	0.0387	0.0999			0.0463	0.0611	0.0447	0.0726	0.0584	0.061		0.0486	
H76Y	0.0456	0.0629	0.0753	0.067	0.0563		0.0588	0.0824		0.0741	0.0576		0.0595	0.0681		0.0618		0.0592	0.0588
L235R	0.034										0.0691		0.0419						
L235W	0.0605	0.0636		0.0498			0.0831		0.049				0.0611	0.0765	0.0621	0.0468			0.0635
P89G	0.103	0.0719	0.0583	0.0498	0.0536	0.0142					0.0718			0.0735				0.0639	0.0604
T114S	0.0228	0.063		0.0706	0.0621		0.0603		0.0497			0.0637	0.045				0.06		
T30M	0.0556	0.0474	0.0572	0.0612			0.0726		0.0443		0.0519		0.0702	0.0587	0.0598	0.0628	0.0467		
S154E	0.0542	0.0429	0.0596	0.0448							0.0663				0.0663				
E231K	0.0318					0.0429	0.0648				0.0732		0.076	0.0874	0.0659				
